# Reference: PubChem BioAssay AID1460 (National Center for Advancing Translational Sciences (NCATS), 2008)
# In all, about 270,000 compounds went through this assay and about 5,800 (2.1%) were called active. Inconclusive results, whose numbers are uncertain, are shown with a selection of clear calls. Calls come from the whole dose curve; as a rule, active = well fitted inhibition curve with a large enough effect; inconclusive = small, poorly fitted or top-dose-only effect; inactive = flat fitted curve, though single readings scatter. Potencies of inconclusive entries are doubtful fits and often do not repeat.
# Biological target: Microtubule-associated protein tau (Homo sapiens) (UniProt P10636)
# Chain of UniProt P10636 (P10636 whole entry, looked up): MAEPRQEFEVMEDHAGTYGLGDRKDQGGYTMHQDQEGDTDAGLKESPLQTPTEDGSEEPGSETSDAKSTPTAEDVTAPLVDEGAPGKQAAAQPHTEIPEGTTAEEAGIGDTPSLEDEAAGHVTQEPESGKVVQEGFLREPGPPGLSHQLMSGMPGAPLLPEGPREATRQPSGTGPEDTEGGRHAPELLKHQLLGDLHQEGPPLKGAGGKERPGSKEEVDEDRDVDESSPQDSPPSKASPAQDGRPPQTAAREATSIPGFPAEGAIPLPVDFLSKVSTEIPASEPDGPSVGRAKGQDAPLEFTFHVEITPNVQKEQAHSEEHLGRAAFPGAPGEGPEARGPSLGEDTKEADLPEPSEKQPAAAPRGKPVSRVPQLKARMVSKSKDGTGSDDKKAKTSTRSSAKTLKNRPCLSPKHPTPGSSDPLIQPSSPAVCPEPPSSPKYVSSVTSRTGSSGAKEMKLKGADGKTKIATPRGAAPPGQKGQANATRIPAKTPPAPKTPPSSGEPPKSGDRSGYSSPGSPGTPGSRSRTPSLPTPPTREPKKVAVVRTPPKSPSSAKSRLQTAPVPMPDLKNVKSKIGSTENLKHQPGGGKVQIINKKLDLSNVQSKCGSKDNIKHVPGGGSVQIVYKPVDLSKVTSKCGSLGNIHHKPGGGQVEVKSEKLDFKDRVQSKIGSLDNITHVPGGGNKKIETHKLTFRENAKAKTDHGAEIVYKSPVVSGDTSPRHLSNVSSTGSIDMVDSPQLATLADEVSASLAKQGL
# Experiment: qHTS for Inhibitors of Tau Fibril Formation, Thioflavin T Binding; note: nearly all actives have a fitted effect of over 55% in size
# Conditions: recombinant tau K18 P301L, heparin-induced fibrillization, ThT fluorescence; series mostly up to 57.4 µM; activity, negative = inhibition: at the top concentration
# Summary of the method: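 Fibril formation assay: tau K18 P301L at 15 uM with trace Alexa 594 label, heparin inducer 20 uM, pH 7 sodium acetate buffer, 37 C for 6 hr; endpoint ThT signal.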
# % is set by controls: 0 for no effect and ±100 for the full control effect; potency is the fitted concentration of half-maximal effect; tags give direction and shape of the fitted curve.
Compound,Potency,"activity, negative = inhibition"
Cc1csc(NC(=O)c2cc3c(s2)CCCCC3)n1,"inconclusive: 14.1 µM [inhibitor, partial curve, poor fit]",
Cc1cccc(Oc2nc(-c3ccncc3)nc3ccccc23)c1,"inconclusive: 39.8 µM [inhibitor, single point]",
O=C(COC(=O)c1cc(-c2cccs2)nc2ccccc12)NCc1ccco1,active: 15.8 µM,
CCOC(=O)c1c(NC(=O)COc2ccc(OC)cc2)sc(C(=O)N(CC)CC)c1C,"inconclusive: 25.1 µM [inhibitor, partial curve]",
Cn1c(=O)c(Nc2ccc(Cl)cc2)c2c3c(cccc31)C(=O)c1ccccc1-2,"inconclusive: 8.91 µM [inhibitor, partial curve]",
Cn1c(=O)c(C(=S)NC(=O)C2CC2)c(N)n(Cc2ccccc2)c1=O,"inconclusive: 20 µM [inhibitor, partial curve]",
Cc1ccc2nc(N3CCN(c4ccc(F)cc4)CC3)c3nnnn3c2c1,"inconclusive: 20 µM [inhibitor, partial curve, poor fit]",
CN(C)c1ccc(/C=N/n2cnn(Cc3ccccc3Cl)c2=S)cc1,"inconclusive: 10 µM [inhibitor, partial curve]",
Cc1ccc(C(C)C)c(OCc2ccc(-c3nnco3)cc2)c1,"inconclusive: 5.01 µM [inhibitor, full curve]",
COc1cccc(-c2noc(COc3cccc(C)c3C)n2)c1,,inactive: -10.8%
CCOC(=O)C1=C(C)OC(N)=C(C#N)C1c1cc(OC)c2c(c1)OCO2 (stereo not drawn),,inactive: -15.8%
O=C1SC(c2ccccc2)=N/C1=C/c1ccco1,"inconclusive: 7.94 µM [inhibitor, partial curve]",
COc1ccc(-c2noc(CNC(=O)c3ccc(OC)cc3OC)n2)cc1,"inconclusive: 14.1 µM [inhibitor, partial curve, poor fit]",
CC1=CC(C)(C)Nc2ccc(OS(=O)(=O)c3ccc(C)cc3)cc21,active: 8.91 µM,
COc1ccc(C2=NN(C)C(=NCc3ccccc3)SC2)cc1,"inconclusive: 17.8 µM [inhibitor, partial curve]",
Fc1ccc(CN2CCN(c3ncccn3)CC2)cc1,,inactive: -8.35%
Cc1cccc(CNC(=O)C2CCN(S(=O)(=O)c3cccc4nonc34)CC2)c1,,inactive: 0.342%
CC1=CC(=O)C=C(C)C1=NOc1ccc([N+](=O)[O-])cc1,"inconclusive: 4.47 µM [inhibitor, full curve]",
O=C(/C=C/c1ccccc1O)c1ccc(Cl)cc1,"inconclusive: 17.8 µM [inhibitor, partial curve]",
O=C(N/N=C/c1ccco1)c1cc(-c2cccc(Br)c2)nc2ccccc12,,inactive: 0.539%
CN(C)c1ccc(NC(=S)c2ccccn2)cc1,active: 3.55 µM,
CC1CCCN(c2ccc(C(=O)Nc3nnc(C4CC4)s3)cc2[N+](=O)[O-])C1 (stereo not drawn),active: 3.98 µM,
COc1ccc(N2CC(c3nc(-c4ccccc4C)no3)CC2=O)cc1Cl (stereo not drawn),"inconclusive: 22.4 µM [inhibitor, single point]",
Cc1ccc(SCc2cc(=O)n(C)[nH]2)cc1,active: 2.24 µM,
O=C1c2ccccc2C(=O)N1CCn1c(=O)oc2ccccc21,,inactive: -17.7%

Compound,Potency,"activity, negative = inhibition"
COc1cc(NC(=O)c2cccc([N+](=O)[O-])c2)ccc1NC(=O)c1ccco1,"inconclusive: 2.82 µM [inhibitor, full curve]",
Cc1ccc(C(c2c(C)n(C)n(-c3ccccc3)c2=O)c2c(C)n(C)n(-c3ccccc3)c2=O)s1,,inactive: -12.3%
COCC(=O)Nc1ccc([N+](=O)[O-])cc1C,,inactive: 9.22%
CC1=Nn2c(nc3sc4c(c3c2=O)CCCC4)SC1,,inactive: 9.5%
CN(Cc1ccccc1)C(=O)CSc1nc2ccccc2c(=O)n1Cc1ccco1,"inconclusive: 20 µM [inhibitor, partial curve]",
CC(=O)NN1C(=O)/C(=C/c2ccc(Br)o2)SC1=S,active: 15.8 µM,
O=[N+]([O-])c1cccc(/C=N/n2c(C3CCCCC3)n[nH]c2=S)c1,,inactive: -6.79%
CCN(CC)CCCNC(=O)c1ccc2c(c1)NC(=O)C(CS(=O)(=O)Cc1ccc(F)cc1Cl)N2 (stereo not drawn),"inconclusive: 25.1 µM [inhibitor, single point]",
COc1ccc(-c2nc(CSCC(=O)N3CCN(C(=O)c4ccco4)CC3)c(C)o2)cc1OC,,inactive: -21.1%
O=C(c1ccc(N2CCCCCC2)c([N+](=O)[O-])c1)N1CCc2ccccc21,"inconclusive: 8.91 µM [inhibitor, full curve, poor fit]",
COC(=O)[C@@]1(Cc2ccccc2)[C@H]2c3cc(C(=O)N4CCCC4)n(C)c3C[C@H]2CN1C(=O)c1ccccc1,,inactive: -4.92%
O=C(NNC(=S)NC(=O)c1ccco1)c1ccc(F)cc1,"inconclusive: 3.16 µM [inhibitor, full curve, poor fit]",
COCCn1c(SCC(=O)Nc2ccc(Br)cc2)nc2c([nH]c3ccccc32)c1=O,,inactive: -10.1%
CCOc1ccccc1C(=O)Nc1cccc(-c2nnc(-c3ccccc3)o2)c1,"inconclusive: 2 µM [inhibitor, full curve]",
CCCc1ccc(OC(=O)c2sc3ncn(Cc4cccc(F)c4)c(=O)c3c2C)cc1,,inactive: 2.01%
Cn1c(=O)c2c(nc(CN3CCN(C(=O)c4ccco4)CC3)n2Cc2ccc(F)cc2)n(C)c1=O,,inactive: -0.353%
COc1ccc2c(c1)C(=O)[C@H](OC(=O)Nc1ccc(OC(F)F)cc1)[C@@H](c1ccc(OC)c(Br)c1)O2,"inconclusive: 1.26 µM [inhibitor, full curve, poor fit]",
O=C(NNC(=S)Nc1ccc(F)cc1)c1cccc([N+](=O)[O-])c1,"inconclusive: 2.82 µM [inhibitor, partial curve, poor fit]",
CCCC(=O)Nc1nnc(-c2ccc3c(c2)OCCO3)o1,,inactive: -4.02%
COc1ccccc1CN(Cc1cc2cc3c(cc2[nH]c1=O)OCCO3)Cc1nnnn1Cc1ccco1,,inactive: -17%
O=C(CSc1nnc(CNc2ccccc2)o1)N1CCCc2ccccc21,"inconclusive: 12.6 µM [inhibitor, partial curve]",
Cc1nc(-c2ccc(Cl)cc2)sc1CCNC(=O)C(=O)Nc1ccccc1C#N,,inactive: -16.6%
CCOC(=O)N1CCN(S(=O)(=O)c2ccc(C(=O)Nc3ccc4c(c3)C(=O)NC4=O)cc2)CC1,,inactive: 7.15%
CC1CCCC/C1=N\NC(=S)Nc1cccnc1 (stereo not drawn),"inconclusive: 28.2 µM [inhibitor, partial curve]",
CC1=C(C(=O)NCc2ccco2)C2(CCC(C)CC2)OC1=O (stereo not drawn),,inactive: 0.898%

Compound,Potency,"activity, negative = inhibition"
O=c1oc2ccccc2c(O)c1Cc1cc(Cl)c2cccnc2c1O,active: 14.1 µM,
N#Cc1c(/N=C/c2cc3ccccc3s2)sc2c1CCC2,active: 1.26 µM,
COc1cccc(CC2(CO)CCCN(Cc3ccccc3-c3ccco3)C2)c1 (stereo not drawn),"inconclusive: 11.2 µM [inhibitor, partial curve, poor fit]",
O=C(NCCC1=CCCCC1)c1ccc([N+](=O)[O-])cc1,"inconclusive: 20 µM [inhibitor, single point]",
CS(=O)(=O)Oc1ccc2c(c1)O/C(=C\c1cccnc1)C2=O,"inconclusive: 25.1 µM [inhibitor, partial curve, poor fit]",
CCCC(=O)N1CCN(c2ccc(NC(=O)c3cc4ccccc4o3)cc2)CC1,"inconclusive: 0.794 µM [inhibitor, full curve]",
O=C(CN1CCN(c2ccccc2)CC1)N1CCc2[nH]c3ccccc3c2C1,"inconclusive: 39.8 µM [inhibitor, single point]",
C=CCOC(=O)NC(c1ccc(F)c(F)c1)C(C(=O)COC)C(=O)OC (stereo not drawn),"inconclusive: 8.91 µM [inhibitor, single point]",
COc1ccccc1-c1ncnn1-c1sc2c(c1C#N)CCCCC2,"inconclusive: 25.1 µM [inhibitor, partial curve]",
CCC(=O)n1nc(-c2ccco2)nc1SCc1ccccc1,"inconclusive: 14.1 µM [inhibitor, partial curve]",
O=[N+]([O-])c1ccc(N2CCSCC2)cc1,"inconclusive: 1.26 µM [inhibitor, partial curve]",
COc1ccc(NC(=O)Cn2ncc3c4ccccc4n(Cc4ccccc4)c3c2=O)cc1OC,,inactive: -5.04%
COC(=O)c1cnn(C(=O)c2ccccc2Br)c1N,,inactive: -2.62%
COc1cc(/C=N/Nc2nc(C)cc(C)n2)ccc1OC(=O)c1ccco1,"inconclusive: 39.8 µM [inhibitor, single point]",
CN1CCN(C(=O)CCCOc2ccc(Cl)cc2Cl)CC1,,inactive: -5.32%
COc1cc2nc(C3CCC3)nc(N3CCN(c4ccccc4OC)CC3)c2cc1OC,"inconclusive: 28.2 µM [inhibitor, single point]",
C=CCCC/C=C(/C)C(OCc1ccc(OC)cc1)C(CC/C=C(\C)C(N)=O)OC (stereo not drawn),"inconclusive: 0.562 µM [inhibitor, single point]",
Cc1ccc(/C=C/C(=O)Nc2cc(=O)n(C)c(=O)n2C)o1,"inconclusive: 25.1 µM [inhibitor, partial curve]",
Cc1cn2c(=O)cc(COC(=O)COc3ccc(F)cc3)nc2s1,,inactive: -0.715%
CCC(=O)c1ccc(OCC(O)CN(CCc2ccccc2)Cc2ccccc2)cc1 (stereo not drawn),"inconclusive: 22.4 µM [inhibitor, partial curve]",
N#C/C(=C\c1cccnc1)c1ccc(Br)cc1,"inconclusive: 39.8 µM [inhibitor, single point]",
CN1CCN(CC(=O)N2CCn3c4c(c5cc(C6CCCCC6)ccc53)CCCC42)CC1 (stereo not drawn),"inconclusive: 28.2 µM [inhibitor, single point]",
Cc1ccc(-c2nc3ncccc3o2)cc1NC(=S)NC(=O)c1ccco1,"inconclusive: 20 µM [inhibitor, single point]",
